# Measurements from PubChem BioAssay AID504832 (National Center for Advancing Translational Sciences (NCATS), 2011).
# Among all 310,000 compounds or so, about 18,000 (5.8%) were called active. This list was built around the results that the source calls inconclusive (neither active nor inactive); the mix of calls is not that of the screen. Calls follow the shape of the dose curve; as a rule, active = well fitted inhibition curve with a large enough effect; inconclusive = small, poorly fitted or top-dose-only effect, or another doubt; inactive = no such curve, though single readings can be large or run the other way. Potencies of inconclusive entries are left out as doubtful fits.
# Test: Primary qHTS for delayed death inhibitors of the malarial parasite plastid, 48 hour incubation
# Details: P. falciparum luciferase growth in erythrocytes; series mostly up to 28.7 µM; activity change, negative = inhibition: at the top concentration
# Method in brief: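 Parasite viability was followed by luminescence of a genomically integrated firefly luciferase. Cultures held 0.1% parasitemia at 2% hematocrit (final), incubated under 5% CO2 at 37 C.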
# % is scaled to controls: 0 for no effect and ±100 for the full control effect; potency is read from the fitted curve at half-maximal effect; tags tell the direction and shape of the fitted curve.
Structure (SMILES),"activity change, negative = inhibition",Potency
Brc1ccc(-c2cn3ccccc3n2)cc1,inactive: 380%,–
CC1(C)CC(=O)C2=C(C1)NC1=C(C(=O)c3ccccc31)C2c1cc([N+](=O)[O-])ccc1O (configuration not stated),–,"inconclusive [inhibitor, single point]"
COC(=O)c1ccc(NC(=O)COc2ccc(S(=O)(=O)NC(C)(C)C)cc2)cc1,inactive: 6.07%,–
COC(=O)c1ccc(C)c(NC(=O)CSc2nc3[nH]c(=O)cc(O)c3s2)c1,–,"inconclusive [inhibitor, single point]"
COc1ccc(CN([C@H](C)CO)S(=O)(=O)N(Cc2ccccc2)[C@H](CO)C(C)C)cc1,–,"inconclusive [inhibitor, partial curve, poor fit]"
COc1ccc(NC(=O)Cn2cc(C(=O)c3ccncc3)c(=O)c3cc(C)ccc32)cc1Cl,–,"inconclusive [inhibitor, partial curve, poor fit]"
N#CC1(NC(=O)CSc2nc3ccccc3s2)CCCCC1,–,"inconclusive [inhibitor, single point]"
Cc1ccc(S(=O)(=O)N2CCOCC2)cc1NC(=O)CSc1ccc(Cl)cc1,–,"inconclusive [inhibitor, partial curve, poor fit]"
CC1CCCCC1NC(=O)Cn1cc([N+](=O)[O-])ccc1=O (configuration not stated),inactive: -2.2%,–
COC(=O)[C@@]1(Cc2ccc(OC)cc2)[C@H]2c3cc(C(=O)N(C)C)n(CCc4ccc(OC)c(Br)c4)c3C[C@H]2CN1C(=O)c1ccccc1,–,active: 2.08 µM
CN(C)C(CNC(C(=O)Nc1ccc([N+](=O)[O-])cc1Br)c1ccccc1)c1ccccc1 (configuration not stated),–,"inconclusive [inhibitor, single point]"
O=C(O)CCC(=O)N1N=C(c2c(-c3ccccc3)c3cc(Cl)ccc3[nH]c2=O)CC1c1ccccc1 (configuration not stated),–,"inconclusive [inhibitor, partial curve]"
O=S(=O)(NCCC1CC1(Cl)Cl)c1ccc(Cl)cc1 (configuration not stated),inactive: 19.8%,–
O=C(COc1ccc(F)cc1)N1c2ccccc2CCc2ccccc21,–,"inconclusive [inhibitor, partial curve]"
COc1ccc(OC)c(C2NC(=O)NC(C)=C2C(=O)Nc2ccc(C)cc2)c1 (configuration not stated),inactive: 24.6%,–
Cc1cccc(C(=O)NC(=S)N2CCN(C)CC2)c1,–,"inconclusive [inhibitor, partial curve, poor fit]"
Fc1ccc(C[n+]2c(-c3ccccc3)cc(-c3ccccc3)cc2-c2ccccc2)cc1,–,active: 0.928 µM
O=C(c1cn(-c2ccccc2)nc1-c1cccc([N+](=O)[O-])c1)N1CCCCC1,–,"inconclusive [inhibitor, single point]"
CCOc1ccc(N(Cc2ccc(OC)c(OC)c2)C(=O)c2ccco2)cc1,–,active: 11.7 µM
COc1ccccc1N1CCN(C(=O)c2ccc(CS(=O)(=O)c3ccccc3OC)o2)CC1,–,"inconclusive [inhibitor, single point]"
COc1cccc(NC(=O)CN(C)C(=O)c2ccc(S(=O)(=O)Nc3ccccc3C)cc2)c1,–,"inconclusive [inhibitor, single point]"
Cc1ccc(NC=C(S(=O)(=O)c2ccccc2)S(=O)(=O)c2ccccc2)c(C)c1,–,"inconclusive [inhibitor, partial curve, poor fit]"
Cc1ccc(C2=NCCn3c2c2ccc([N+](=O)[O-])cc2[n+]3[O-])cc1,–,"inconclusive [inhibitor, single point]"

Structure (SMILES),"activity change, negative = inhibition",Potency
CCn1c(=O)cc(SCC(=O)NCCN2CCN(Cc3ccccc3)CC2)c2ccccc21,–,"inconclusive [inhibitor, single point]"
CNC(=O)C1CC(=O)N(Cc2ccc3c(c2)OCO3)C(=Nc2ccc(OC)cc2)S1 (configuration not stated),–,"inconclusive [inhibitor, partial curve, poor fit]"
O=C(c1ccccc1)N1N=C(c2ccccc2)CC1c1ccccc1O (configuration not stated),–,"inconclusive [inhibitor, full curve, poor fit]"
COc1ccc(NCc2nnc(SCC(=O)c3ccc(OC)cc3)n2C)cc1,–,"inconclusive [inhibitor, full curve, poor fit]"
Cc1ccc(C(=O)N2CCN(S(=O)(=O)c3ccc(Br)cc3)CC2)o1,–,active: 6.57 µM
O=C(NCc1ccccc1)C1Cc2ccccc2CN1C(=O)c1ccco1 (configuration not stated),inactive: -8.41%,–
O=C(Nc1ccccc1O)c1ccc(Cl)cc1,–,active: 5.86 µM
CC1CC2(CCCCC2)Nc2ccc3ccccc3c21 (configuration not stated),–,active: 10.4 µM
CCn1cc(C(=O)NCc2ccc(Cl)cc2)c(=O)c2cc(S(=O)(=O)N3CCOCC3)ccc21,–,"inconclusive [inhibitor, single point]"
c1ccc(Cn2ncc3c(Nc4ccccc4)ncnc32)cc1,–,"inconclusive [inhibitor, partial curve, poor fit]"
CCOC(=O)/C=C1\CN(Cc2cc(OC)c(OC)c(OC)c2)S(=O)(=O)c2ccc(C(F)(F)F)cc21,–,"inconclusive [inhibitor, partial curve, poor fit]"
Cc1cc(N/N=C/c2ccccc2O)nc(-c2ccccc2O)n1,–,"inconclusive [inhibitor, single point]"
CCC1=Nc2cc(C(=O)NCC3CCCO3)ccc2Sc2ccc(Cl)cc21 (configuration not stated),–,"inconclusive [inhibitor, partial curve]"
CCCCCCc1cc2cc(C(=O)Nc3ccc(OC)cc3)c(=O)oc2cc1O,–,"inconclusive [inhibitor, partial curve, poor fit]"
CCCOP(=O)(OCCC)C(Nc1ccc(C(C)C)cc1)c1ccc([N+](=O)[O-])cc1 (configuration not stated),–,"inconclusive [inhibitor, single point]"
OC(CCc1ccncc1)COc1ccccc1 (configuration not stated),–,"inconclusive [inhibitor, partial curve, poor fit]"
O=C(Nc1cccc2ccccc12)c1cc2c(cc1Br)OCO2,inactive: 72.5%,–
CCOc1ccc(CCNC(=O)CS(=O)Cc2nc(-c3ccc(OC)cc3)oc2C)cc1OCC (configuration not stated),inactive: -7.09%,–
Cc1csc2nc(O)c(C(=O)NC3CCCCCC3)c(=O)n12,–,active: 11.7 µM
O=C(O)C1CCN(c2nc(-c3ccccc3)nc3c2oc2ccccc23)CC1,–,"inconclusive [inhibitor, partial curve, poor fit]"
O=C(O)CCc1c(C(=O)O)[nH]c2ccccc12,inactive: 0.234%,–
CC(Oc1ccc(C(C)(C)C)cc1)C(=O)NCC(c1ccco1)N1CCCC1 (configuration not stated),–,"inconclusive [inhibitor, partial curve, poor fit]"
CC1Cc2ccccc2N1C(=O)c1ccc2c(c1)nnn2C (configuration not stated),inactive: 6.68%,–

Structure (SMILES),"activity change, negative = inhibition",Potency
Cc1cc(C)nc(SCC(=O)c2ccc(F)cc2F)n1,–,"inconclusive [inhibitor, single point]"
CCOc1cccc(CN2CCN(CCCc3ccccc3)C(CCO)C2)c1O (configuration not stated),–,"inconclusive [inhibitor, single point]"
CCOc1ccc(NC(=S)NNc2ccnc3cc(Cl)ccc23)cc1,–,"inconclusive [inhibitor, single point]"
Cc1ccc2ncccc2c1NC(=S)NC(=O)c1ccccc1,–,"inconclusive [inhibitor, single point]"
CN1CCN(C(=O)c2cc([N+](=O)[O-])cc([N+](=O)[O-])c2)CC1,–,"inconclusive [inhibitor, full curve, poor fit]"
Cc1ccc(C(=O)Nc2ccc(S(=O)(=O)N3CCc4ccccc43)cc2)o1,–,"inconclusive [inhibitor, single point]"
O=C(CSc1nc2nn(-c3ccccc3)c(=O)c-2c2n1CCCCC2)Nc1ccccc1[N+](=O)[O-],–,"inconclusive [inhibitor, partial curve, poor fit]"
O=C(Nc1c(C(=O)O)[nH]c2ccc(F)cc12)c1cccc(C(F)(F)F)c1,inactive: -4.25%,–
CC(C)(CC(=O)OCC(=O)Nc1ccccc1F)CC1=NS(=O)(=O)c2ccccc2N1,–,"inconclusive [inhibitor, single point]"
COC(=O)Cn1c2ccc(F)cc2c2nc(C)sc21,–,"inconclusive [inhibitor, partial curve, poor fit]"
CCOc1cc(C(=O)Nc2ccccc2N2CCN(S(C)(=O)=O)CC2)cc(OCC)c1OCC,–,"inconclusive [inhibitor, full curve]"
COCCn1c(C)cc(C(=O)CSc2ncn[nH]2)c1C,inactive: -68.2%,–
CCOc1ccc(NC(=O)CSc2nnc(C)n2CC)cc1,inactive: 12.3%,–
COc1ccc(N=Cc2c(O)cc(C)oc2=O)cc1,inactive: 24.2% [at 1.15 µM],–
CN(C)c1ccc(N/C=C/C(=O)c2ccc(F)cc2)cc1,–,"inconclusive [inhibitor, single point]"
Cc1nc(N2CCN(c3ccccc3)CC2)nc2c1C(=O)CC(C)C2 (configuration not stated),inactive: 13.6%,–
CC(C)CCOc1ccc(C(=O)NN2C(=O)NC3(CCCCC3)C2=O)cc1,inactive: 3.23%,–
Cn1cc(C(CO)Cc2ccccc2)c2ccccc21 (configuration not stated),–,"inconclusive [inhibitor, single point]"
COc1ccc2nc(N3CCN(C(=O)c4ccc([N+](=O)[O-])o4)CC3)sc2c1,–,active: 1.31 µM
C(=C\c1ccncc1)/c1ccccc1,–,"inconclusive [inhibitor, partial curve]"
CCOC(=O)c1cc(-c2ccc(C#N)cc2)nc2c1c(C)nn2CCC#N,–,"inconclusive [inhibitor, single point]"
